About 2,200 (0.71%) of roughly 310,000 compounds showed an effect of 50% or more. Effects have a minus sign here. This is one part of the list.
Molecular target: human ether-à-go-go-related gene (hERG) potassium channel (human, UniProt Q12809)
Assay: primary screen, population patch clamp on CHO cells stably expressing hERG

Chain of human ether-à-go-go-related gene (hERG) potassium channel (Q12809 whole entry, looked up): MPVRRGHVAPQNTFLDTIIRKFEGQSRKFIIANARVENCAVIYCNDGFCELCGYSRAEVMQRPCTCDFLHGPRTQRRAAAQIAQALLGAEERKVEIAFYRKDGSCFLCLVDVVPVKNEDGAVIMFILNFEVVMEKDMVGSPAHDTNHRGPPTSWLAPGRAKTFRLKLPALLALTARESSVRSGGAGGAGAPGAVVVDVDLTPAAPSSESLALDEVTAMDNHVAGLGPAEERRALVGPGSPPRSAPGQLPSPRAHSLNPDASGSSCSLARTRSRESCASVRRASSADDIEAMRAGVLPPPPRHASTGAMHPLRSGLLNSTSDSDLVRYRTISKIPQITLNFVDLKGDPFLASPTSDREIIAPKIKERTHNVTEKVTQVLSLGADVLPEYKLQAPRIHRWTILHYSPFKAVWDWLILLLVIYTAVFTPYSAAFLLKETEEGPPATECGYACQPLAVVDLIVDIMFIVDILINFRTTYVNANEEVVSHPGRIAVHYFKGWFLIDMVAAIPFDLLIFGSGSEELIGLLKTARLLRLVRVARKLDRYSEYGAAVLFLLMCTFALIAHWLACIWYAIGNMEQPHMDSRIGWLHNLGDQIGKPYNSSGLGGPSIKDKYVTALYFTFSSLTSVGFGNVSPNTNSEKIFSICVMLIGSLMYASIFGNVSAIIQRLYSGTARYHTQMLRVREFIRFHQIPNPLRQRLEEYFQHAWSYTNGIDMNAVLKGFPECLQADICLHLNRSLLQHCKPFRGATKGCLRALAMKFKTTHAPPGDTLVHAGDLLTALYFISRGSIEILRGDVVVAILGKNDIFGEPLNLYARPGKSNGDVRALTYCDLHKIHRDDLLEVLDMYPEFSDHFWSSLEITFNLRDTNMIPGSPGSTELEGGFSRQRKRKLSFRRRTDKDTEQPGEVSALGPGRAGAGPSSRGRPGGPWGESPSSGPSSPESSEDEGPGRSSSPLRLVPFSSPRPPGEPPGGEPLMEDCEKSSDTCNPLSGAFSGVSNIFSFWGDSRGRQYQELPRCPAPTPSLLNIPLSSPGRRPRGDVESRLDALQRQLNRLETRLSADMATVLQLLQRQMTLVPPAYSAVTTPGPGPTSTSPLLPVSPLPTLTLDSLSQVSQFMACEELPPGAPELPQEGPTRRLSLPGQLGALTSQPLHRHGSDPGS

SMILES | hERG current change (%, negative = inhibition) at 1uM
O=C(Cn1c2ccc(F)cc2c2nc3n(c(=O)c21)CCS3)NC1CCCC1 | 8.76%
CC(=O)Nc1ccc(Nc2ncc([N+](=O)[O-])c(Nc3ccc(NC(C)=O)cc3)n2)cc1 | 11.2%
CCOc1ccc(-c2c(C)sc3nc[nH]c(=O)c23)cc1 | 13.7%
Cl.N=c1n(CCO)c2ccccc2n1CCOc1ccc(Cl)cc1Cl | -33.6%
O=C(NC1CCCCC1)C(c1ccncc1)N(Cc1ccc2c(c1)OCO2)C(=O)c1cnsn1 (centres unmarked) | 5.5%
CCCc1ccc(C(=O)O/N=C(\N)c2ccccn2)cc1 | 4.27%
COc1ccc(-c2csc(/C=C/c3ccc4c(c3)OCO4)n2)cc1OC | 2.68%
CCc1nnc(NC(=O)CSc2nnc(CNc3ccc(Cl)cc3)o2)s1 | 2.71%
O=C1CN(C(=O)c2ccco2)c2ccccc2N1 | 11.3%
CCOC(=O)c1cc(S(=O)(=O)NCc2ccco2)cn1C | 8.14%
Cc1cc(C)cc(N2C(=O)CC(Cn3nc(C)cc3C)C2=O)c1 (centres unmarked) | 4.61%
CCOC(=O)CSc1nnc(CNC(=O)c2cccs2)n1-c1ccccc1 | 3.45%
O=S(=O)(c1cccc(-c2nnc3n2CCCCC3)c1)N1CCOCC1 | 5.29%
Fc1ccc(NC(=S)NCc2cccs2)cc1 | 2.52%
CCCCCCCN1C(Nc2ccccc2)=NC[C@@H]1Cc1ccccc1 | -79.6%
CC(C)CN(C(=O)COC(=O)C(C)N1C(=O)c2ccccc2C1=O)c1c(N)n(Cc2ccccc2)c(=O)[nH]c1=O (centres unmarked) | 5.55%
O=C(O)/C=C/C(=O)Nc1ccc(OC(F)F)cc1 | -5.6%
O=C(NCCN1CCOCC1)c1ccc2c(c1)N(Cc1ccccc1F)C(=O)c1ccccc1S2 | 11.4%
Cc1ccc([N+](=O)[O-])cc1NC(=O)CN1CCC(C)CC1 | 11%
COCCNC(=S)N1CCN(c2cccc(C)c2C)CC1 | 14.4%
O=S(=O)(Nc1cccnc1)c1ccc(F)cc1 | 11.6%
CCCCCOC(=O)C1[C@H]2C(=O)N(Cc3cccs3)C[C@]23C=C[C@H]1O3 (some centres unmarked) | 8.86%

SMILES | hERG current change (%, negative = inhibition) at 1uM
C/C(=N\Nc1nc2ccccc2s1)c1ccc2c(c1)OCO2 | 13.8%
COc1ccccc1N1CCN(Cc2cc(C)c(C)cc2O)CC1 | -1.06%
Cc1cc(C)c(NC(=O)CSc2nnc(-c3ccncc3)n2Cc2ccco2)c(C)c1 | -12.6%
Cc1ccccc1C1C(C#N)=C2NC(=O)c3c(sc4c3CCCCC4)N2C2=C1C(=O)CC(C)(C)C2 (centres unmarked) | 10.2%
CCOc1cc(/C=C/c2cc(C(F)(F)F)[nH]c(=O)n2)ccc1O | 15.5%
Cc1ccc(/C=C2/SC(=S)N(c3ccc(S(=O)(=O)Nc4nccs4)cc3)C2=O)cc1 | 15.4%
Cc1ccc(-c2cc(C(F)F)nc(NCc3cccnc3)n2)cc1 | 12.7%
Cn1c(CSc2nc3ccccc3n2C)nc2ccccc21 | 11%
C#CCn1cnc2c(cnn2-c2ccc(C)c(C)c2)c1=O | 8.4%
Cc1cccc(C)c1NC(=S)N(Cc1cccnc1)Cc1ccccc1Cl | 6.92%
Cc1nnc(Nc2ccc(F)cc2)c2ccccc12 | -5.84%
COc1ccc(-c2cc3cc(-c4cc(OC)c(OC)c(OC)c4)ccc3o2)cc1 | 8.79%
CSc1nc2nc3c(c(=O)n2[nH]1)CN(Cc1ccccc1)CC3 | 6.65%
CC(=O)O[C@H]1[C@H]2O[C@]23[C@@H]2CC[C@]4(O)C[C@@H](O)CC[C@]4(C)C2CC[C@]3(C)[C@H]1c1ccc(=O)oc1 (some centres unmarked) | 6.84%
NS(=O)(=O)c1cnccc1Nc1ccc(Cl)c(Cl)c1 | 7.19%
COc1ccc(-c2nc(C#N)c(NCCCN3CCOCC3)o2)cc1 | -5.64%
Cc1cccc(NC(=O)c2nc[nH]c2C(=O)NCc2ccccc2)c1 | 8.93%
Cc1nn(C(C)C(=O)NNC(=S)Nc2ccc(Cl)cc2)c(C)c1[N+](=O)[O-] (centres unmarked) | 4.3%
CC1(C)CC(=O)CC(=NCC(=O)O)C1 | 12%
COCCN(CCOC)c1nc(-c2ccc(C)cc2)nc2ccccc12.Cl | -24.9%
CN(C)S(=O)(=O)c1cc(C(=O)OCCn2cnc3c2c(=O)n(C)c(=O)n3C)ccc1Cl | -14.2%
COc1ccc(CNCCC2(Cc3ccccc3)CC(C)N(C)CC2C)cc1OC.Cl (centres unmarked) | 12.4%

SMILES | hERG current change (%, negative = inhibition) at 1uM
CC(=O)c1ccc(N2CCN(S(=O)(=O)c3cn(C)c(C)n3)CC2)cc1 | 13.2%
O=S(=O)(c1ccccc1)N1CCN(CC(O)COc2ccc3c(c2)CCC3)CC1 (centres unmarked) | 7.37%
Cc1ccc(S(=O)(=O)NCCC(=O)N2CC(C)OC(C)C2)cc1 (centres unmarked) | 16.1%
Cc1cc(Cl)ccc1OCC(=O)OCC(=O)c1c(N)n(C)c(=O)n(C)c1=O | -6.12%
Cc1ccc(NS(=O)(=O)c2cc(C(=O)OCC(=O)NCC3CCCO3)ccc2C)cc1 (centres unmarked) | 10.5%
O=C(NCCCCNC(=O)c1ccccc1F)c1ccccc1F | 13.2%
COc1cccc(-c2csc(N3CCN(S(=O)(=O)c4ccc(F)cc4)CC3)n2)c1 | -8.84%
CCCCn1c(N)c(N(CC)C(=O)CSCc2c(C)noc2C)c(=O)[nH]c1=O | 10%
COc1ccc(-c2nc3c(n2O)CCc2c-3no[n+]2[O-])cc1 | 18.1%
CCc1cccc2c(C(=O)CSc3nncn3C)c[nH]c12 | 11.2%
CCCCN(CC)CCCNC(=S)Nc1ccc2nc(N3CCN(C)CC3)cc(C)c2c1 | 4.69%
CSc1nnc(-c2cc3ccccc3cc2O)n1C | 3.51%
O=CN1CCN(C(=O)c2cccc([N+](=O)[O-])c2)CC1 | 8.76%
COc1cccc(C(=O)Nc2c(C)nn(-c3ccccc3)c2C)c1 | 11.9%
Cl.Fc1ccc(Nc2nc(N3CCOCC3)c3ccccc3n2)cc1 | 4.87%
CCN(CC(=O)NC(C)(C)C)C(=O)CN1c2cccc3cccc(c23)S1(=O)=O | 17.3%
CCC(=O)c1ccc(OCC(=O)OCC(=O)N2CCN(c3ccc(OC)cc3)CC2)cc1 | 20.4%
COC(=O)c1ccc(NC(=O)CCN2CCN(CCC(=O)Nc3ccc(C(=O)OC)cc3)CC2)cc1 | 1.76%
CCCCN(C)Cc1c(C)[nH]c2ccccc2c1=O | -8.8%
COCCNCCCOc1ccc(C(C)(C)c2ccccc2)cc1.O=C(O)C(=O)O | -2.99%
CN(C)C1C(=O)c2ccccc2C1=O | 2.44%
COC(=O)CNC(=O)COC(=O)/C=C/c1ccc(F)cc1 | 12.2%

SMILES | hERG current change (%, negative = inhibition) at 1uM
CCC(Oc1ccccc1)C(=O)Nc1ccccc1C(=O)N1CCCCC1 (centres unmarked) | 10.1%
CCCC(=O)Nc1nc2n(n1)C(c1ccccc1)CC(=O)N2 (centres unmarked) | 4.23%
O=C(COC(=O)c1ccc(S(=O)(=O)N2CCc3ccccc3C2)cc1)NC(=O)NCc1ccco1 | 9.42%
O=C(O)CCN1C(=O)C2C3CC(C2C1=O)C1C(c2ccccc2)c2sc(=O)n(-c4ccccc4)c2SC31 (centres unmarked) | 13.3%
Cc1cc(C2C(C#N)=C(N)OC3=C2C(=O)CCC3)c(C)s1 (centres unmarked) | -1.05%
O=P(/C(=N/O)N1CCCCC1)(N1CCOCC1)N1CCOCC1 | 11%
Cc1nn(CC(=O)NCCN2CCOCC2)c(C)c1[N+](=O)[O-] | 21.7%
CC(=O)C[C@@H](O)CC(=O)[C@H]1OC(=O)CCCCCCc2ccccc21 | 6.45%
O=C(Nc1ccc(N2CCOCC2)cc1)c1cccc(S(=O)(=O)N2CCCCCC2)c1 | 9.66%
COc1ccc(CN(C)C(=O)c2[nH]c(C)c(C(C)=O)c2C)cc1F | 9.61%
CC(NC(=O)c1cc2cc(Cl)ccc2oc1=N)c1ccccc1 (centres unmarked) | 13.7%
COc1ccc([C@@H]2[C@@H]3C(=O)N(C(C)(C)C)C(=O)[C@@H]3[C@]3(CC(C)C)C(=O)N(c4ccccc4)C(=O)N23)cc1 | 11.8%
O=C(CN1C(=O)C2C3CCC(C3)C2C1=O)OCC(=O)c1cccc([N+](=O)[O-])c1 (centres unmarked) | 16.4%
Cc1cc(OCc2ccc(C(=O)n3cccn3)o2)ccc1Cl | 2.13%
CCN(CC)CCCn1c2c(c(SCC(=O)Nc3ccc(F)c(F)c3)nc1=O)CCC2 | -8.08%
Cc1cccc[n+]1CC(=O)/C=C1\N(C)c2ccccc2C1(C)C.[Cl-] | 21.7%
CC(C)(C)OC(=O)N/N=C\c1ccc(OC(=O)c2cccs2)cc1 | 9.49%
O=c1c2ccccc2nc(SCc2cn3ccsc3n2)n1-c1ccccc1 | 8.55%
Cc1onc(C(=O)N2CCN(c3ccccc3F)CC2)c1-c1ccccc1Cl | 11.1%
CCc1cc(CNC(=O)c2ccc(OC3CCN(C(C)=O)CC3)c(OC)c2)on1 | 17.5%

Source: paper PMC4336329 (PLoS ONE, 2015)
